Assay results as given in patent publication US11161864B2, “Sting agonists” (Venenum Biodesign, LLC, priority 2018, dated 2021).
pEC50: −log10 of the molar value. Read-outs that look alike come from different tables or passages of the source.

How the values were obtained:
[1] = test system: STING pathway, RAW-Dual Reporter cell line; assay: cells; settings: for pEC50: read-out: Murine Agonist EC50
[2] = molecular target: HAQ STING protein, THP1 Dual (HAQ) human cells (Homo sapiens (Human), UniProt Q86WV6, G230A/H232R/R293Q/R71H)
[3] = molecular target: wildtype (WT) STING protein, THP1 Dual (WT) human cells (Homo sapiens (Human), UniProt Q86WV6, H232R)
Chain of wildtype (WT) STING protein, THP1 Dual (WT) human cells (Q86WV6 whole entry H232R): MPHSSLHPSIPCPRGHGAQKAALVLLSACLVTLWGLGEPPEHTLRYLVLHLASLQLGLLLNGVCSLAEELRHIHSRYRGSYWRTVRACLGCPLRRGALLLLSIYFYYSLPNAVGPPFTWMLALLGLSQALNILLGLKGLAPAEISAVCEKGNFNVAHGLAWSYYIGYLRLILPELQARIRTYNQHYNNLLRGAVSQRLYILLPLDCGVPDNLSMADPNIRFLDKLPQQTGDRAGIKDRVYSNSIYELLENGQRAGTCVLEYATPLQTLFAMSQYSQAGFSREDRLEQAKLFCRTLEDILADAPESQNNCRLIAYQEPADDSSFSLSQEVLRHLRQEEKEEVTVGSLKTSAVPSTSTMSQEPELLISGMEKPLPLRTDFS

Chain of HAQ STING protein, THP1 Dual (HAQ) human cells (Q86WV6 whole entry R71H/G230A/H232R/R293Q): as the sequence (Q86WV6 whole entry H232R) above, with R71H, G230A, R293Q counted along it

Row | pEC50 ([1]; 5 hrs) | Human HAQ Agonist Efficacy ([2]; 5 hrs) [%] | Human WT Agonist Efficacy ([3]; 5 hrs) [%] | Human HAQ Agonist Efficacy [2] [%] | Human WT Agonist Efficacy [3] [%] | Structure (SMILES) | Murine Agonist Efficacy ([1]; 5 hrs) [%] | Murine Agonist Efficacy [1] [%] | pEC50 [1]
1 | 4.00 to 5.00 | >100 | <100 |  |  | Nc1nc2c(ncn2[C@@H]2O[C@@H]3COP(=O)(S)O[C@H]4C[C@H](C4)n4c(nc5cncnc54)COP(=O)(S)O[C@@H]2C3)c(=O)[nH]1 (single isomer, unassigned) [Example 35C] | >100 |  | 
2 | > 5.00 | >100 | <100 |  |  | Cc1ncc2nc3n(c2n1)CCOP(=O)(S)OC[C@H]1O[C@@H](n2cnc4c(=O)[nH]c(N)nc42)[C@H](OP(=O)(S)OC3)[C@@H]1F (single isomer, unassigned) [Example 11D] | >100 |  | 
3 |  |  |  | >100 | <100 | Nc1nc2c(nc3n2CCOP(=O)(S)OC[C@H]2O[C@@H](n4cnc5c(N)ncnc54)[C@H](OP(=O)(S)OC3)[C@@H]2F)c(=O)[nH]1 (stereo partly drawn) [Example 23D, (1S,21R,23R,24R)-11-Amino-23-(6-amino-9H-purin-9-yl)-24-fluoro-3,18-disulfanyl-2,4,17,19,22-pentaoxa-7,10,12,14-tetraaza-3lambda5,18lambda5-diphosphatetracyclo[19.2.1.06,14.08,13]tetracosa-6,8(13),11-triene-3,9,18-trione] | >100 |  | 
4 | > 5.00 |  |  | >100 | >100 | Nc1nc2c(ncn2[C@@H]2O[C@@H]3COP(=O)(S)OCC(F)(F)Cn4c(nc5cncnc54)COP(=O)(S)O[C@@H]2[C@@H]3F)c(=O)[nH]1 (single isomer, unassigned) [Example 19D] | >100 |  | 
5 | > 5.00 | <100 | <100 |  |  | O=c1[nH]cnc2c1ncn2[C@@H]1O[C@@H]2COP(=O)(S)OCCn3c(nc4cncnc43)COP(=O)(S)O[C@@H]1[C@@H]2F (stereo partly drawn) [Example 21C, (1S,21R,23R,24R)-24-Fluoro-23-(6-oxo-6,9-dihydro-1H-purin-9-yl)-3,18-disulfanyl-2,4,17,19,22-pentaoxa-7,10,12,14-tetraaza-3lambda5,8lambda5-diphosphatetracyclo[19.2.1.06,14.08,13]tetracosa-6,8,10,12-tetraene-3,18-dione] | >100 |  | 
6 | > 5.00 |  |  | >100 | <100 | Nc1nc2c(ncn2[C@@H]2O[C@@H]3COP(=O)(S)OCCn4c(nc5cc(Cl)cnc54)COP(=O)(S)O[C@@H]2[C@@H]3F)c(=O)[nH]1 (single isomer, unassigned) [Example 14D] | >100 |  | 
7 | 4.00 to 5.00 | <100 | <100 |  |  | O=c1[nH]cnc2c1ncn2[C@@H]1O[C@@H]2COP(=O)(S)OCCn3c(nc4cncnc43)COP(=O)(S)O[C@@H]1[C@@H]2F (stereo partly drawn) [Example 21D, (1S,21R,23R,24R)-24-Fluoro-23-(6-oxo-6,9-dihydro-1H-purin-9-yl)-3,18-disulfanyl-2,4,17,19,22-pentaoxa-7,10,12,14-tetraaza-3lambda5,8lambda5-diphosphatetracyclo[19.2.1.06,14.08,13]tetracosa-6,8,10,12-tetraene-3,18-dione] | >100 |  | 
8 | 3.00 to 4.00 |  |  | <100 | <100 | Nc1nc2c(ncn2[C@@H]2O[C@@H]3COP(=O)(S)OCC(F)(F)Cn4c(nc5cncnc54)COP(=O)(S)O[C@@H]2[C@@H]3F)c(=O)[nH]1 (single isomer, unassigned) [Example 19B] | <100 |  | 
9 | > 5.00 |  |  | >100 | <100 | Nc1nc2c(nnn2[C@@H]2O[C@@H]3COP(=O)(S)OCCn4c(nc5cncnc54)COP(=O)(S)O[C@@H]2[C@@H]3F)c(=O)[nH]1 (single isomer, unassigned) [Example 24D] | >100 |  | 
10 | 4.00 to 5.00 | >100 | <100 |  |  | O=c1[nH]cnc2c1ncn2[C@@H]1O[C@@H]2COP(=O)(S)OCCn3c(nc4cncnc43)COP(=O)(S)O[C@@H]1[C@@H]2F (stereo partly drawn) [Example 21B, (1S,21R,23R,24R)-24-Fluoro-23-(6-oxo-6,9-dihydro-1H-purin-9-yl)-3,18-disulfanyl-2,4,17,19,22-pentaoxa-7,10,12,14-tetraaza-3lambda5,8lambda5-diphosphatetracyclo[19.2.1.06,14.08,13]tetracosa-6,8,10,12-tetraene-3,18-dione] | >100 |  | 
11 | > 5.00 |  |  | >100 | >100 | Nc1nc2c(ncn2[C@@H]2O[C@@H]3COP(=O)(S)OCCn4nc(-c5cncs5)nc4COP(=O)(S)O[C@@H]2[C@@H]3F)c(=O)[nH]1 (single isomer, unassigned) [Example 16C] | >100 |  | 
12 | 4.00 to 5.00 | >100 | <100 |  |  | Cc1ncc2nc3n(c2n1)CCOP(=O)(S)OC[C@H]1O[C@@H](n2cnc4c(=O)[nH]c(N)nc42)[C@H](OP(=O)(S)OC3)[C@@H]1F (single isomer, unassigned) [Example 11A] | >100 |  | 
13 | > 5.00 | >100 | >100 |  |  | Cc1ncc2nc3n(c2n1)CCOP(=O)(S)OC[C@H]1O[C@@H](n2cnc4c(=O)[nH]c(N)nc42)[C@H](OP(=O)(S)OC3)[C@@H]1F (single isomer, unassigned) [Example 11C] | >100 |  | 

Row | Structure (SMILES) | pEC50 ([1]; 5 hrs) | Human HAQ Agonist Efficacy ([2]; 5 hrs) [%] | Human WT Agonist Efficacy ([3]; 5 hrs) [%] | Human HAQ Agonist Efficacy [2] [%] | Human WT Agonist Efficacy [3] [%] | Murine Agonist Efficacy ([1]; 5 hrs) [%] | Murine Agonist Efficacy [1] [%] | pEC50 [1]
14 | CO[C@H]1[C@H]2OP(=O)(S)OCc3nc4cncnc4n3CCOP(=O)(S)OC[C@H]1O[C@H]2n1cnc2c(=O)[nH]c(N)nc21 (stereo partly drawn) [Example 27D, (1R,21R,23R,24R)-23-(2-Amino-6-oxo-6,9-dihydro-1H-purin-9-yl)-24-methoxy-3,18-disulfanyl-2,4,17,19,22-pentaoxa-7,10,12,14-tetraaza-3lambda5,18lambda5-diphosphatetracyclo[19.2.1.06,14.08,13]tetracosa-6,8,10,12-tetraene-3,18-dione] |  | >100 | >100 |  |  | >100 |  | 
15 | NC(=O)c1cnc2c(c1)nc1n2CCOP(=O)(S)OC[C@H]2O[C@@H](n3cnc4c(=O)[nH]c(N)nc43)[C@H](OP(=O)(S)OC1)[C@@H]2F (stereo partly drawn) [Example 37B, (1S,21R,23R,24R)-23-(2-Amino-6-oxo-6,9-dihydro-1H-purin-9-yl)-24-fluoro-3,18-dioxo-3,18-disulfanyl-2,4,17,19,22-pentaoxa-7,12,14-triaza-3lambda,5,18lambda5-diphosphater] |  |  |  | >100 | >100 |  | >100 | > 5.00
16 | N#Cc1cnc2c(c1)nc1n2CCOP(=O)(S)OC[C@H]2O[C@@H](n3cnc4c(=O)[nH]c(N)nc43)[C@H](OP(=O)(S)OC1)[C@@H]2F (single isomer, unassigned) [Example 38D] |  |  |  | >100 | >100 |  | >100 | > 5.00
